# The supplement of paper PMC8728848
# This is one part of the list.
# Columns and labels:
# Test in all cases: glycan array binding signal (z-score within array); higher = stronger binding
# Details in all cases: glycan notation: IUPAC condensed, linker removed
# [1] = molecular target: Neu5Ac(a2-3)Gal(b1-4)GlcNAc(b1-2)[Neu5Ac(a2-3)Gal(b1-4)GlcNAc(b1-4)]Man(a1-3)[GlcNAc(b1-4)][Neu5Ac(a2-3)Gal(b1-4)GlcNAc(b1-2)[Neu5Ac(a2-3)Gal(b1-4)GlcNAc(b1-6)]Man(a1-6)]Man(b1-4)GlcNAc(b1-4)GlcNAc
# Summary of the method: (§1)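 Arrays were curated from the Consortium for Functional Glycomics database, 3228 in total, and kept only where the protein sequence was available. Binding is expressed as a within-array Z-score. This score was averaged across arrays of the same protein sequence at different concentrations or buffers and across linkers, and negative values can be read as non-binding.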
# [2] = molecular target: Neu5Ac(a2-3)Gal(b1-4)GlcNAc(b1-2)[Neu5Ac(a2-3)Gal(b1-4)GlcNAc(b1-4)]Man(a1-3)[GlcNAc(b1-4)][Neu5Ac(a2-3)Gal(b1-4)GlcNAc(b1-4)Man(a1-6)]Man(b1-4)GlcNAc(b1-4)GlcNAc
# Summary of the method: as §1
# [3] = molecular target: Neu5Ac(a2-3)Gal(b1-4)GlcNAc(b1-2)[Neu5Ac(a2-3)Gal(b1-4)GlcNAc(b1-6)]Man(a1-6)[Neu5Ac(a2-3)Gal(b1-4)GlcNAc(b1-2)Man(a1-3)][GlcNAc(b1-4)]Man(b1-4)GlcNAc(b1-4)GlcNAc
# Summary of the method: as §1
# [4] = molecular target: Neu5Ac(a2-3)Gal(b1-4)GlcNAc(b1-3)Gal
# Summary of the method: as §1
# [5] = molecular target: Neu5Ac(a2-3)Gal(b1-4)GlcNAc(b1-3)Gal(b1-3)GlcNAc
# Summary of the method: as §1
# [6] = molecular target: Neu5Ac(a2-3)Gal(b1-4)GlcNAc(b1-3)Gal(b1-4)GlcNAc
# Summary of the method: as §1
# [7] = molecular target: Neu5Ac(a2-3)Gal(b1-4)GlcNAc(b1-3)Gal(b1-4)GlcNAc(b1-2)Man(a1-3)[Neu5Ac(a2-3)Gal(b1-4)GlcNAc(b1-3)Gal(b1-4)GlcNAc(b1-2)Man(a1-6)]Man(b1-4)GlcNAc(b1-4)GlcNAc
# Summary of the method: as §1
# [8] = molecular target: Neu5Ac(a2-3)Gal(b1-4)GlcNAc(b1-3)Gal(b1-4)GlcNAc(b1-3)Gal(b1-4)GlcNAc
# Summary of the method: as §1
# [9] = molecular target: Neu5Ac(a2-3)Gal(b1-4)GlcNAc(b1-3)Gal(b1-4)GlcNAc(b1-3)Gal(b1-4)GlcNAc(b1-2)Man(a1-3)[Neu5Ac(a2-3)Gal(b1-4)GlcNAc(b1-3)Gal(b1-4)GlcNAc(b1-3)Gal(b1-4)GlcNAc(b1-2)Man(a1-6)]GalNAc
# Summary of the method: as §1
# [10] = molecular target: Neu5Ac(a2-3)Gal(b1-4)GlcNAc(b1-3)Gal(b1-4)GlcNAc(b1-3)GalNAc
# Summary of the method: as §1
# [11] = molecular target: Neu5Ac(a2-3)Gal(b1-4)GlcNAc(b1-3)Gal(b1-4)GlcNAc(b1-3)[Neu5Ac(a2-3)Gal(b1-4)GlcNAc(b1-3)Gal(b1-4)GlcNAc(b1-6)]GalNAc
# Summary of the method: as §1
# [12] = molecular target: Neu5Ac(a2-3)Gal(b1-4)GlcNAc(b1-3)Gal(b1-4)GlcNAc(b1-6)[Gal(b1-3)]GalNAc
# Summary of the method: as §1
# [13] = molecular target: Neu5Ac(a2-3)Gal(b1-4)GlcNAc(b1-3)Gal(b1-4)[Fuc(a1-3)]GlcNAc
# Summary of the method: as §1
# [14] = molecular target: Neu5Ac(a2-3)Gal(b1-4)GlcNAc(b1-3)GalNAc
# Summary of the method: as §1
# [15] = molecular target: Neu5Ac(a2-3)Gal(b1-4)GlcNAc(b1-3)[Neu5Ac(a2-3)Gal(b1-4)GlcNAc(b1-6)]GalNAc
# Summary of the method: as §1
# [16] = molecular target: Neu5Ac(a2-3)Gal(b1-4)GlcNAc(b1-6)GalNAc
# Summary of the method: as §1
# [17] = molecular target: Neu5Ac(a2-3)Gal(b1-4)GlcNAc(b1-6)[Gal(b1-3)]GalNAc
# Summary of the method: as §1
# [18] = molecular target: Neu5Ac(a2-3)Gal(b1-4)GlcNAc(b1-6)[Neu5Ac(a2-3)Gal(b1-3)]GalNAc
# Summary of the method: as §1
# [19] = molecular target: Neu5Ac(a2-3)Gal(b1-4)GlcNAc6S
# Summary of the method: as §1
# [20] = molecular target: Neu5Ac(a2-3)Gal(b1-4)[Fuc(a1-3)]GlcNAc
# Summary of the method: as §1
# [21] = molecular target: Neu5Ac(a2-3)Gal(b1-4)[Fuc(a1-3)]GlcNAc(b1-2)Man
# Summary of the method: as §1
# [22] = molecular target: Neu5Ac(a2-3)Gal(b1-4)[Fuc(a1-3)]GlcNAc(b1-3)Gal
# Summary of the method: as §1
binder,measurement,setting,value
Pwp5 ND (Candida glabrata) (protein) MGSSHHHHHHSSGLVPRGSHMASANPVPLTNVCYFPEEYPRQAGFRAITAGLASTILQGSVDELLNYSGLSSLTTQQTTTTTPNFQLPTLPLPTNVYGLTVVPLYLLVQLQGYFVPPVSGQYTFSLENTNDAAIIFFGNPSAFPCGDLSAWPQASADDITVTDGTFPSRTLFLKAGVAYPMRISYYNSLGSGNLAVSFTDPGGTKRTNWNGYIWRYNSCSTCTYT,glycan array binding signal (z-score),[1],-0.564
same,glycan array binding signal (z-score),[2],-0.544
same,glycan array binding signal (z-score),[3],13
same,glycan array binding signal (z-score),[4],0.949
same,glycan array binding signal (z-score),[5],-0.332
same,glycan array binding signal (z-score),[6],0.211
same,glycan array binding signal (z-score),[7],-0.247
same,glycan array binding signal (z-score),[8],-0.612
same,glycan array binding signal (z-score),[9],0.463
same,glycan array binding signal (z-score),[10],2.38
same,glycan array binding signal (z-score),[11],4.41
same,glycan array binding signal (z-score),[12],-0.721
same,glycan array binding signal (z-score),[13],0.552
same,glycan array binding signal (z-score),[14],-0.202
same,glycan array binding signal (z-score),[15],1.35
same,glycan array binding signal (z-score),[16],1.67
same,glycan array binding signal (z-score),[17],0.165
same,glycan array binding signal (z-score),[18],-0.144
same,glycan array binding signal (z-score),[19],-0.3
same,glycan array binding signal (z-score),[20],-0.271
same,glycan array binding signal (z-score),[21],-0.294
same,glycan array binding signal (z-score),[22],-0.263
